# Article PMC4336329 (PLoS ONE, 2015)
# In all, about 310,000 compounds went through this assay and about 2,200 (0.71%) showed an effect of 50% or more. The effect is printed as a negative number. Some of the results follow.
# Biological target: human ether-à-go-go-related gene (hERG) potassium channel (human, UniProt Q12809)
# Assay: primary screen, population patch clamp on CHO cells stably expressing hERG
# Chain of human ether-à-go-go-related gene (hERG) potassium channel (Q12809 whole entry, looked up): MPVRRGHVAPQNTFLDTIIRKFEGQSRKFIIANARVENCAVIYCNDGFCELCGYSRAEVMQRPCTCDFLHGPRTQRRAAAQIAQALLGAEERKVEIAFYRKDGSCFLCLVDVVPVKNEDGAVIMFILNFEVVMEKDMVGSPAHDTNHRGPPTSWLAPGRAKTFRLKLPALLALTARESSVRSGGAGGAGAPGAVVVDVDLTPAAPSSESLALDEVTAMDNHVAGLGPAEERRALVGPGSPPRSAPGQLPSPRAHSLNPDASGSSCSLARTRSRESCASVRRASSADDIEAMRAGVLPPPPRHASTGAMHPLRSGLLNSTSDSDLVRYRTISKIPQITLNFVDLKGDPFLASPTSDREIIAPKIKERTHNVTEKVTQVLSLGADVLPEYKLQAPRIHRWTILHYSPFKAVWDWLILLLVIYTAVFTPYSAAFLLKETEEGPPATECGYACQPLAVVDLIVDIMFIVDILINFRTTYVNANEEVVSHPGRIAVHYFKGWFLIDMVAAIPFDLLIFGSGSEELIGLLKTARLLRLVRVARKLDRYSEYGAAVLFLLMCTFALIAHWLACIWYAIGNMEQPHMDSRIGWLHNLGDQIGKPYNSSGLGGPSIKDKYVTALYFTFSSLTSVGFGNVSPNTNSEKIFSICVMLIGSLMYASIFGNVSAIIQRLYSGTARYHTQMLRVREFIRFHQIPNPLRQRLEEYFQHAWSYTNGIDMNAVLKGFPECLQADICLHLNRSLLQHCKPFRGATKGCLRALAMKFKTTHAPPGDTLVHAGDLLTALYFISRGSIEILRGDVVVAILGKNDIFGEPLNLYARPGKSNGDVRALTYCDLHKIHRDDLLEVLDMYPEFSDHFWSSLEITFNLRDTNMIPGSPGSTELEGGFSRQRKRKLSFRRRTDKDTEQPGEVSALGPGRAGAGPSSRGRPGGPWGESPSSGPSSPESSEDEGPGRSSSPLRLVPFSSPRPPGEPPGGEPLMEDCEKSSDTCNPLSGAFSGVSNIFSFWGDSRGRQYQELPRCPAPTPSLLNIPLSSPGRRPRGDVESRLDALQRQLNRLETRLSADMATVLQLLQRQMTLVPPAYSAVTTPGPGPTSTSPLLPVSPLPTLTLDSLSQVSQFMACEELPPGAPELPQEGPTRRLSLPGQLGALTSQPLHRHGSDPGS
row,Structure (SMILES),"hERG current change (%, negative = inhibition) at 1uM [%]"
1,O=C(CN1CCN(c2ccccc2F)CC1)c1ccc2cc[nH]c2c1,-45.6
2,CCCCc1nnc(NC(=O)CS(=O)(=O)Cc2ccccc2)s1,13.4
3,O=S(=O)(c1ccc2ccccc2c1)N1CCN=C1SCc1cccnc1,1.98
4,O=C(CCc1nc2ccccc2c(=O)[nH]1)N1CCN(S(=O)(=O)c2cccc(F)c2)CC1,1.9
5,CNC(=O)c1sc(Nc2ccc(OCc3ccccc3)cc2)nc1C,13.1
6,Cl.O=C(O)c1cc(S(=O)(=O)N2CCN(C(c3ccccc3)c3ccccc3)CC2)ccc1Cl,4.17
7,O=C(Nc1cccc(CNCCc2c[nH]c3ccccc23)c1)c1ccccc1Cl.O=C(O)C(=O)O,3.45
8,Cc1sc2ncn(CC(=O)N3CCN(c4ccc(F)cc4)CC3)c(=O)c2c1S(=O)(=O)N1CCOCC1,-33.1
9,Cc1cc(C)cc(NS(=O)(=O)c2c(C)[nH]c(=O)[nH]c2=O)c1,14.8
10,COc1cccc(NC(=O)c2ccc3c(c2)N(CC(=O)N2CCOCC2)C(=O)C(C)(C)O3)c1,10.4
11,Cl.OC(COc1ccccc1)CN1C2=NCCCN2c2ccccc21 (stereo not shown),-54.6
12,COc1cc(C(=O)N2CCN(S(=O)(=O)c3ccc(F)cc3)CC2)cc(OC)c1OC,0.916
13,O=C(COc1ccccc1[N+](=O)[O-])N1CCCc2ccccc21,9.45
14,Cc1ccc(Cl)cc1NC(=S)NCCCSC1CCCCC1,3.51
15,COc1ccccc1Nc1nc(-c2sc(NC(=O)c3ccco3)nc2C)cs1,4.48
16,Cc1ccc(NC(=O)CCC(=O)N2CCOc3ccccc32)c(Cl)c1,10.8
17,CCOC(=O)C1=C(O)C(=O)N(Cc2ccc(C(C)(C)C)cc2)CC1,15.9
18,CC(C)[C@H](NC(=O)N1c2ccccc2NC(=O)[C@@H]1C(C)C)C(=O)N1CCC(C(=O)O)CC1,4.61
19,CC(=O)c1ccc(-n2c(C)ccc2-c2ccccc2)cc1,3.29
20,O=C(CCn1cnc2ccccc21)N/N=C/c1ccccc1O,4.34
21,COc1ccc(CCn2c(=O)c3cccnc3n(Cc3cccc([N+](=O)[O-])c3)c2=O)cc1OC,-1.88
22,COc1ccc(C(=O)CC(=O)c2ccc(C)cc2)c(O)c1,13.8

row,Structure (SMILES),"hERG current change (%, negative = inhibition) at 1uM [%]"
1,CS(=O)(=O)c1ccc(C(=O)Nc2ccccc2N2CCOCC2)c(Cl)c1,6.04
2,CCOC(=O)C1=C(CSc2nc(C)cc(C)c2C#N)OC(N)=C(C#N)C1c1cccs1 (stereo not shown),1.03
3,CCOC(=O)c1ccc(N2C(=O)CC(N3CC=C(c4ccc(F)cc4)CC3)C2=O)cc1 (stereo not shown),11.7
4,Cc1sc(NC(=S)NC(=O)C(C)(C)C)c(C(N)=O)c1C,6.85
5,COCCn1c(N)c(C(=S)NC(=O)c2cccs2)c(=O)[nH]c1=O,15
6,CCc1c(C)nc2ncnn2c1Nc1ccc(C)c(C)c1,-2.55
7,COc1ccc2[nH]cc(CCNC(=O)C3CCCO3)c2c1 (stereo not shown),6.06
8,CC1=C(C(=O)Nc2ccccc2C(=O)N2CCCCC2)SCCO1,13.4
9,COCCNC(=O)c1onc(CSc2nc3ccccc3[nH]2)c1C(=O)NCCOC,-1.43
10,CCCCCCNC(=O)C(C#N)c1nc2ccccc2nc1N1CCCC1 (stereo not shown),6.57
11,COc1ccc2c(c1OC)C(=O)OC2c1c(O)n(C2CCCCC2)c(=O)[nH]c1=O (stereo not shown),-18.5
12,CC(C)c1ccc(NC(=S)NC2CCCCCC2)cc1,-0.348
13,COc1cccc(CNC(=O)C2CCN(S(=O)(=O)c3cccc4nonc34)CC2)c1,13.4
14,CCNC(=O)C(=O)NCC1CCCN1S(=O)(=O)c1cccs1 (stereo not shown),11.4
15,C/C=C/c1ccc(OCCCNC)c(OC)c1.O=C(O)C(=O)O,-10.9
16,CS(=O)(=O)N(CC(=O)Nc1ccccc1Br)Cc1ccccc1,15.7
17,CCOC(=O)c1oc2c(CN3CCN(C)CC3)c(O)ccc2c(=O)c1-c1ccccc1OC,9.55
18,COCCN(Cc1cc2cc(C)ccc2nc1Cl)C(=O)Nc1ccccc1OC,15.8
19,O=C(O)C(=O)O.O=C(c1cccc(F)c1)N1CCN(Cc2ccc3c(c2)OCO3)CC1,14.1
20,COc1ccc(C(=O)Oc2ccc(C(=S)N3CCOCC3)cc2)cc1,20
21,Cn1c(=O)c2c([nH]c(=S)n2Cc2ccc(Cl)cc2)n(C)c1=O,14.6
22,CCOc1ccc(N(CC(=O)N2CCN(c3ccccc3OC)CC2)S(=O)(=O)c2ccc(F)cc2)cc1,-0.46

row,Structure (SMILES),"hERG current change (%, negative = inhibition) at 1uM [%]"
1,COC(=O)C1(C)CCc2cc(OC)ccc2C1=O (stereo not shown),8.27
2,COc1ccc(OC)c(CCNC(=O)Cn2sc3nc(C)cc(C)c3c2=O)c1,14.6
3,COc1ccc(C(=O)Nc2ccc(-c3nnn(CC(=O)NCc4ccco4)n3)cc2)cc1,-3.58
4,Fc1ccc(CN2CCSCC2)cc1F,1.87
5,Cc1ccsc1C(=O)N1CC=C(c2ccccc2)CC1,7.56
6,Cc1nc(SCC(=O)NCCc2ccccc2)c2c(=O)n(C)c(=O)n(C)c2n1,12.4
7,CC(=O)C1=C(O)C(=O)N(CCCn2ccnc2)C1c1ccc(C)cc1 (stereo not shown),5.04
8,Cc1c(/C=N/NC(=O)CNc2ccccc2)c2ccccn2c1C(=O)c1ccccc1,2.51
9,O=C1/C(=C\c2cccs2)N=C(c2cccs2)N1Nc1ccccc1,13.4
10,CC1CC(C)CN(S(=O)(=O)c2cccc3nsnc23)C1 (stereo not shown),3.04
11,O=C1Nc2ccccc2C1=Nc1ccc(Br)cc1,8.47
12,Cc1ccc(OCC(=O)N2c3ccccc3NC(=O)C2(C)C)c([N+](=O)[O-])n1,9.36
13,CCCC(=O)Nc1cc(S(=O)(=O)N(CC)CC)ccc1Cl,12
14,O=C(CCNC(=O)c1ccccc1Cl)Nc1ccncc1,14.2
15,COc1ccccc1CN1CC(C(=O)NCc2nccn2C)CCC1=O (stereo not shown),16.4
16,Cc1ccccc1-c1n[nH]c(=S)n1/N=C/c1c(C)nn(-c2ccccc2)c1C,5.29
17,COc1ccc(CC(=O)Nc2cccc(-c3ccc4nnc(C)n4n3)c2)cc1,0.298
18,Cn1c(SCC(=O)O)nnc1-c1ccc(NC(=O)c2ccc(Cl)c(Cl)c2)cc1,8.47
19,CCN(CC(=O)NCC(=O)Nc1cccc(C)c1C)Cc1ccccc1,4.42
20,COc1cc(NC(=O)COC(=O)/C=C/c2c(C)nn(C3CCS(=O)(=O)C3)c2Cl)cc(OC)c1OC (stereo not shown),12.3
21,COc1ccc(CCNC(=O)CSc2ccsc2[N+](=O)[O-])c(OC)c1,-1.65
22,Cc1ccc2c(c1)cc(C)c1nnc(SCC(=O)NCc3ccco3)n12,6.83

row,Structure (SMILES),"hERG current change (%, negative = inhibition) at 1uM [%]"
1,CCc1ccc2c(COC(=O)C3CSC4(C)CCC(=O)N34)cc(=O)oc2c1 (stereo not shown),-15
2,O=C(c1cn(-c2ccccc2)nc1-c1ccc(Cl)cc1)N1CCOCC1,14.5
3,CCOC(=O)C1=C(N)OC2=C(C(=O)CC(C)(C)C2)C1c1cccnc1 (stereo not shown),-19.9
4,CCc1nnc(N/N=C\c2ccc(OC(C)=O)c(OC)c2)n1N.Cl,11.1
5,Nc1nc(COC(=O)C2CC(=O)N(CCc3ccccc3)C2)nc(Nc2ccccc2)n1 (stereo not shown),-28.1
6,CC(OC(=O)c1cccs1)C(=O)Nc1nc(-c2ccccc2)cs1 (stereo not shown),15.5
7,Cc1ccc(N2C(=O)c3ccccc3C2C(=O)c2ccc(C)c(C)c2O)cc1 (stereo not shown),11.5
8,Cc1ccc2c(c1)NC(=O)CC(c1ccccc1)=N2,-20.4
9,CN(C)c1ccc(/C=N/NC(=O)c2ccc(CN3CCOCC3)cc2)cc1Br,3.95
10,COc1cc(OC)c(/C=N/NC(=O)Cn2nc([N+](=O)[O-])cc2C)c(OC)c1,9.91
11,NC(=O)c1cc[n+](CC2=C(C(=O)[O-])N3C(=O)[C@@H](NC(=O)C(c4ccccc4)S(=O)(=O)[O-])[C@H]3SC2)cc1.[Na+] (stereo partly shown),13.2
12,O=C(NCCNc1ccc(Cl)cc1[N+](=O)[O-])c1cccnc1,-8.2
13,O=C1c2ccccc2C(=O)N1c1ccc(Cl)cn1,2.04
14,O=C(Cc1ccccc1)Nc1ccc(NC(=O)c2cccnc2)cc1,17.3
15,Cc1cc(C)c(C)c(S(=O)(=O)Nc2ccccc2C(=O)NCCCN2CCOCC2)c1C,-34.4
16,Cc1ccc(NC(=O)Cn2cnc3c(=O)n(C)c(=O)n(C)c32)c(C)c1,2.97
17,Cc1nnc(N/N=C\c2ccc(-c3cccc(C(=O)O)c3)o2)n1N.Cl,13.8
18,O=C(Nc1ccc2ccccc2c1)c1ccc(Cl)cc1Cl,11.1
19,COc1ccc(Oc2nnc(-c3ccccc3)cc2C#N)cc1,3.45
